The values below come from the antibiotic and cytotoxicity screens of Wong et al. (2023).

Assay [1] relates to HSkMC (human skeletal muscle cells). The assay can be described thus: cytotoxicity call (relative viability < 0.9). To be noted: 10 µM.
The test system of assay [2] is HepG2. Put plainly: cytotoxicity call (relative viability < 0.9). Conditions: 10 µM.
Assay [3] concerns S. aureus RN4220. The assay can be described thus: growth inhibition call (relative growth <= 0.2). Conditions: 50 µM.

The other results are listed elsewhere or left out.

For the compound `C[C@@H]1CN([C@H](C)CO)C(=O)c2cc(NC(=O)Nc3cccc4ccccc34)ccc2O[C@H]1CN(C)Cc1ccc(C(=O)O)cc1`, the cytotoxicity call in assay [1] and in assay [2] was “inactive” throughout. Besides, in assay [3], the growth inhibition call was “inactive”.
For `C[C@H](CO)N1C[C@H](C)[C@H](CN(C)S(=O)(=O)c2cccc(F)c2)Oc2ncc(-c3cccc(C(=O)N(C)C)c3)cc2C1=O`, the cytotoxicity call in assay [1] and in assay [2] was “inactive” throughout. The growth inhibition call in assay [3] is “inactive”.
As to `COCC(=O)Nc1ccc2c(c1)OC[C@H](C)N(Cc1ccccc1OC)C[C@@H](C)[C@H](OC)CN(C)C2=O`, the cytotoxicity call in assay [1] and in assay [2] was “inactive” throughout. In addition, the growth inhibition call in assay [3] is “inactive”.
With `C[C@H]1CN([C@@H](C)CO)C(=O)c2cc(NS(C)(=O)=O)ccc2O[C@H]1CN(C)C(=O)Nc1ccc2c(c1)OCO2`, the cytotoxicity call in assay [1] and in assay [2] was “inactive” in each case. For the same compound, the growth inhibition call in assay [3] is “inactive”.
With `C[C@H]1CN([C@@H](C)CO)C(=O)CCCn2cc(nn2)CO[C@@H]1CN(C)S(=O)(=O)c1ccc(Cl)cc1`, the cytotoxicity call in assay [1] and in assay [2] was “inactive” in each case. Besides, the growth inhibition call in assay [3] is “inactive”.
On to `O=S(=O)(NCC[C@H]1CC[C@H](NS(=O)(=O)c2ccccc2Cl)[C@H](CO)O1)c1ccc(Cl)cc1`, for which the cytotoxicity call in assay [1] and in assay [2] was “inactive” throughout. In assay [3], the growth inhibition call was “inactive”.
In the case of `C[C@@H]1CN([C@@H](C)CO)C(=O)c2cc(NS(=O)(=O)c3ccc(Cl)cc3)ccc2O[C@@H](C)CCCCO[C@@H]1CN(C)Cc1ccc(C(=O)O)cc1`, the cytotoxicity call in assay [1] and in assay [2] was “inactive” throughout. The growth inhibition call in assay [3] was “inactive”.
On to `CC(C)NC(=O)N(C)C[C@@H]1OCCCC[C@@H](C)Oc2ccc(NS(=O)(=O)c3cn(C)cn3)cc2C(=O)N([C@H](C)CO)C[C@@H]1C`, for which the cytotoxicity call in assay [1] and in assay [2] was “inactive” throughout. In addition, the growth inhibition call in assay [3] is “inactive”.
For `O=C1c2ccccc2[C@@]2(Cc3ccccc3N(CC(F)(F)F)C2=O)[C@H](c2ccc(CO)cc2)N1Cc1ccccc1Cl`, the cytotoxicity call in assay [1] and in assay [2] was “inactive” in each case. For the same compound, the growth inhibition call in assay [3] was “inactive”.
`CN(C)CCCNC(=O)C1CCNCC1`: the cytotoxicity call in assay [1] and in assay [2] was “inactive” throughout. Besides, the growth inhibition call in assay [3] is “inactive”.
Regarding `COCCOC(=O)N1C(=O)[C@@]2(c3cc(C#CCNC(N)=O)ccc31)[C@H](C(=O)N1CCCCCCC1)[C@H]1C(=O)O[C@H](c3ccccc3)[C@H](c3ccccc3)N1[C@@H]2c1ccccc1OCCO`, the cytotoxicity call in assay [1] and in assay [2] was “inactive” in each case. For the same compound, the growth inhibition call in assay [3] was “inactive”.
Turning to `Cc1noc(C)c1NC(=O)Nc1ccc2c(c1)C(=O)N([C@@H](C)CO)C[C@@H](C)[C@@H](CN(C)CC1CCCCC1)OCCCC[C@@H](C)O2`, the cytotoxicity call in assay [1] and in assay [2] was “inactive” throughout. Besides, the growth inhibition call in assay [3] is “inactive”.
`O=C(C[C@@H]1C=C[C@@H](NC(=O)CN2CCOCC2)[C@H](CO)O1)NCc1cccc(F)c1`: the cytotoxicity call in assay [1] and in assay [2] was “inactive” each time. Also, the growth inhibition call in assay [3] was “inactive”.
`C[C@@H]1CN([C@@H](C)CO)C(=O)c2cccc(NS(=O)(=O)c3ccc(F)cc3)c2O[C@H]1CN(C)S(=O)(=O)c1cccs1`: the cytotoxicity call in assay [1] and in assay [2] was “inactive” throughout. In addition, the growth inhibition call in assay [3] is “inactive”.
For `C[C@H]1CCCCO[C@@H](CN(C)C(=O)Nc2ccccc2)[C@@H](C)CN([C@@H](C)CO)C(=O)c2cc(NC(=O)c3ccncc3)ccc2O1`, the cytotoxicity call in assay [1] and in assay [2] was “inactive” each time. Also, the growth inhibition call in assay [3] is “inactive”.
For `C[C@@H]1CN([C@H](C)CO)C(=O)Cc2cc(NC(=O)Nc3ccc(F)cc3)ccc2O[C@@H]1CN(C)Cc1ccc(C(=O)Nc2ccccc2N)cc1`, the cytotoxicity call in assay [1] is “inactive”. Further, the cytotoxicity call in assay [2] was “active”. The growth inhibition call in assay [3] was “inactive”.
`C[C@H]1CN([C@@H](C)CO)C(=O)c2cccc(NC(=O)Nc3ccccc3)c2O[C@H]1CN(C)Cc1ccc(C(F)(F)F)cc1`: the cytotoxicity call in assay [1] and in assay [2] was “inactive” throughout. For the same compound, the growth inhibition call in assay [3] was “inactive”.
With `C[C@@H]1CN([C@@H](C)CO)C(=O)c2cc(NC(=O)C3CCCCC3)ccc2O[C@@H](C)CCCCO[C@@H]1CN(C)Cc1ccncc1`, the cytotoxicity call in assay [1] and in assay [2] was “inactive” each time. Also, in assay [3], the growth inhibition call was “inactive”.
As to `COc1ccc(NC(=O)N(C)C[C@@H]2OCc3ccccc3-c3c(n(C)c4ccccc34)C(=O)N([C@@H](C)CO)C[C@H]2C)c(OC)c1`, the cytotoxicity call in assay [1] and in assay [2] was “inactive” each time. In addition, in assay [3], the growth inhibition call was “inactive”.
On to `Cc1ccc(S(=O)(=O)N(C)C[C@H]2OCCCC[C@H](C)Oc3ccc(NC(=O)C4CCCCC4)cc3C(=O)N([C@H](C)CO)C[C@@H]2C)cc1`, for which the cytotoxicity call in assay [1] and in assay [2] was “inactive” in each case. The growth inhibition call in assay [3] is “inactive”.
With `COc1ccc([Si](C)(C)[C@H]2[C@H](CC(=O)N3CCC[C@H]3CO)O[C@@]3(C(=O)N(Cc4cccc(N5CCCCC5=O)c4)c4ccccc43)[C@@H]2C)cc1`, the cytotoxicity call in assay [1] and in assay [2] was “inactive” in each case. Besides, in assay [3], the growth inhibition call was “inactive”.
As for `C[C@H]1CN([C@@H](C)CO)C(=O)c2cc(NC(=O)Nc3ccccc3)ccc2O[C@@H]1CN(C)C(=O)Nc1ccc(C(F)(F)F)cc1`, the cytotoxicity call in assay [1] and in assay [2] was “inactive” each time. Also, the growth inhibition call in assay [3] is “inactive”.
As for `C[C@H]1CCCCO[C@H](CN(C)Cc2ccncc2)[C@@H](C)CN([C@@H](C)CO)C(=O)c2cc(NC(=O)Nc3ccc(C(F)(F)F)cc3)ccc2O1`, in assay [1], the cytotoxicity call is “inactive”. The cytotoxicity call in assay [2] is “active”. The growth inhibition call in assay [3] was “inactive”.
